Data: ChEMBL document CHEMBL1201862, “PubChem BioAssay data set” (2004)
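Following 48 hours of exposure in 96-well plates, responses at five concentrations were used to interpolate endpoints linearly. At the GI50, growth is halved.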 Active and inactive are the calls of the source. Cut-off read from the data, not from the text of the source: active = GI50 up to about 1.1 µM and inactive = higher.

These molecules were tested on NCI-H322M (assay: NCI-60 cell line screen, 48 h).

Compound | GI50
CC(C)(C)c1cc(/C=C/C(=O)CC(=O)/C=C/c2cc(C(C)(C)C)c(O)c(C(C)(C)C)c2)cc(C(C)(C)C)c1O | inactive: > 50 µM
O=C1C2=C(C3=NCCc4c[nH]c1c43)c1c(cc(Br)c(O)c1Br)CCN2 | inactive: 17.2 µM
CC12C=CC(=O)C=C1CCC1C3CCC(O)(C(=O)CO)C3(C)CC(O)C12F (centres undefined) | inactive: > 100 µM
CNc1ccc(-c2nc3cc(C)ccc3o2)cc1 | inactive: > 100 µM
COc1ccc2nc3ccccc3c(NCCCCN(CCCl)CCCl)c2c1 | active: 0.353 µM
C#Cc1cc(CN(CC(=O)OC(C)(C)C)CC(=O)OC(C)(C)C)nc(CN(CC(=O)OC(C)(C)C)CC(=O)OC(C)(C)C)c1 | inactive: 8.36 µM
COc1cc2c(/C=C3/C(=O)Nc4ccccc43)c(Cl)[nH]c2cc1C | active: 0.0857 µM
O=C1CC2CCN(C(=O)c3ccccc3)CC2CCN1.O=C1CCC2CC(C(=O)c3ccccc3)CCC2CN1 (centres undefined) | inactive: > 100 µM
N#CCCN(CCC#N)c1ccc(/C=C(/NC(=O)c2cc([N+](=O)[O-])ccc2Cl)C(=O)N=[N+]=[N-])cc1 | inactive: > 100 µM
CN(C)c1ccc(/C=N/N=C2\C(=O)Nc3c(Cl)cc(Cl)cc32)cc1 | inactive: > 100 µM
CCCCCCCCCCCCOc1ccc(/C=C/C2=[N+](CCCl)CCO2)cc1 | inactive: 16.6 µM
COc1ccc2c(c1)/C(=C\c1c(C)nc3n1CCS3)C(=O)N2 | inactive: 44.3 µM
Oc1cc(CF)nc(S)n1 | inactive: > 100 µM
CN(C)CCNC(=O)c1cccc2c1Nc1ccccc1S2 | inactive: 14.3 µM
COC(=O)c1ccc(/C=C2\N=C(C)OC2=O)cc1 | inactive: > 100 µM
Cc1ccc2[nH]c(Sc3c([N+](=O)[O-])ncn3C)nc2c1 | inactive: 28.4 µM
COc1ccc(C2=C(Cl)c3cc(OC)c(OC)cc3C2)cc1OC | inactive: > 100 µM
C=CCN(c1cc(OC)c2c(c1[N+](=O)[O-])C(C)(SC)C(=O)N2)S(C)(=O)=O (centres undefined) | inactive: 97.3 µM
CCCCCNC1=CC(=O)c2ccccc2C1=O | inactive: 41.5 µM
O=C(O)c1cc(CC2Cc3cc4c(cc3C2=O)CCC4)cc2c1CCC2 (centres undefined) | inactive: > 100 µM
CC(=O)CC(=O)N(CCN(C(=O)CC(C)=O)c1ccccc1)c1ccccc1 | inactive: > 100 µM
Cc1ccc(S(=O)(=O)NCCCSCCSCCCN)cc1 | inactive: > 100 µM

Compound | GI50
COc1cc(N(CCC#N)CCC#N)ccc1C(/N=N/c1cccc(C)c1)=N\NC(=O)c1ccc(C)cc1 | inactive: > 100 µM
Cc1cc2nc3ccccc3n2c2ccccc12 | inactive: > 10 µM
Cc1ccc(-c2cc(-c3ccc(Cl)cc3)nc(/N=C3\C(=O)N(CN4CCCCC4)c4ccc(Cl)cc43)n2)cc1 | inactive: 64.4 µM
Sc1nnc(Cc2ccc(Cl)cc2)[nH]1 | inactive: 55.1 µM
C=CCC(CC=O)(C(=O)OCC)C(=O)OCC | inactive: > 100 µM
C1OC1CO[C@@H]1CO[C@H]2[C@@H]1OC[C@H]2OCC1CO1 (some centres undefined) | inactive: > 100 µM
Clc1ccc(/N=C/C=C/Nc2ccc(Cl)cn2)nc1 | inactive: 16.3 µM
COc1ccc(/C=C2\N=C(SC)NC2=O)cc1 | inactive: > 100 µM
CN(C)CC(CN(C)C)c1ccccn1 | inactive: > 100 µM
C/C(=N\Nc1nc2cc(C(F)(F)F)ccc2s1)c1ccccn1 | active: 0.362 µM
O=C1ON(Cc2ccccc2)C(c2ccccc2)N1c1ccccc1 (centres undefined) | inactive: > 100 µM
CCN(CC)CCNc1ccc(/N=N/c2ccc(S(N)(=O)=O)cc2)c2ccccc12 | inactive: 17.9 µM
COC(CN1C=C(Sc2ccccc2)CC1)OC | inactive: 39.8 µM
COc1cc2c(c(O)c1C)C(=O)C(Cl)=CC2=O | inactive: 17.1 µM
O=C1CC[C@@H](S(=O)(=O)c2ccccc2)[C@@H](/C=C/c2ccccc2)O1 | inactive: > 100 µM
O=C(NCCCn1ccnc1[N+](=O)[O-])C(=O)NCCCn1ccnc1[N+](=O)[O-] | inactive: > 100 µM
C=C1CCOC2(C(O)C(C)(O)CO)NC(=O)C1(O)NC2=O (centres undefined) | inactive: > 100 µM
Cc1ccccc1CN1CC2=C(CCN(Cc3ccccc3)C2=O)N2CCN=C12 | inactive: 19.8 µM
O=c1cc(-c2ccccc2)nc(-n2[nH]c3c(c2=O)CCCC3)[nH]1 | inactive: 1.32 µM
CN(C)CC1CCC/C1=N/OC(=O)c1ccccc1 (centres undefined) | inactive: > 100 µM
CCCNC(=S)N/C=C1/C(=O)Oc2ccccc2C1=O | inactive: > 100 µM
Brc1cccc[n+]1-c1ccc2cc(-[n+]3ccccc3Br)ccc2c1 | inactive: > 100 µM
